According to PubChem BioAssay AID652104 (National Center for Advancing Translational Sciences (NCATS), 2013):
The whole screen tested about 410,000 compounds, of which about 7,200 (1.8%) were called active. This list was built around the results that the source calls inconclusive (neither active nor inactive); the mix of calls is not that of the screen. Calls follow the shape of the dose curve; as a rule, active = well fitted activation curve with a large enough effect; inconclusive = small, poorly fitted or top-dose-only effect, or another doubt; inactive = no such curve, though single readings can be large or run the other way. No potency is given beside an inconclusive call; the fits are too rough.

Assay: qHTS of TDP-43 Inhibitors; also: nearly all actives have a fitted effect of over 50% in size; as to growth rescue (activation): % of control where 0% means no effect
Details: TDP-43 expressing yeast growth rescue, BacTiter-Glo, 24 h; growth rescue (activation): at 46.1 µM (top of the series) unless noted
Summary of the method: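 In this qHTS, compounds that restore growth of yeast expressing TDP-43 appear as activators. Cells (OD600=0.02, galactose medium, raffinose-pregrown) are incubated with compound 24 hr at 30 deg C and growth is quantified by BacTiter-Glo.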
Potency is read from the fitted curve at half-maximal effect; tags tell the direction and shape of the fitted curve.

| Compound | Potency | growth rescue (activation) |
| --- | --- | --- |
| O=C(NC1CCCCCC1)C1CCN(c2nc3ccccc3o2)CC1 | inconclusive [activator, partial curve] | – |
| CC1CCc2sc3nc(NCc4ccco4)n4ncnc4c3c2C1 (stereo not given) | active: 25.1 µM | – |
| Cc1c(C)c2ccc(OCC(=O)Nc3ccccn3)c(C)c2oc1=O | inconclusive [activator, single point] | – |
| COc1ccc(-c2oc3cccnc3c2-c2ccc(OC)nc2)cc1 | inconclusive [activator, single point] | – |
| Cc1ccc2c(=O)cc(C(=O)Nc3sc4c(c3C(=O)NCC3CCCO3)CCC4)oc2c1 (stereo not given) | inconclusive [activator, single point] | – |
| CCCc1c(-c2cccc(Cl)c2)ncn1CCc1ccccc1OC | inconclusive [activator, partial curve, poor fit] | – |
| Cc1ccc(CNC(=O)C2CC(c3ccc([N+](=O)[O-])cc3)=NO2)cc1 (stereo not given) | inconclusive [activator, single point] | – |
| O=C(Cc1cccs1)NNC(=S)NCc1ccc(Cl)cc1 | – | inactive: 3.52% |
| Cc1c(C(=O)N(CCO)Cc2ccccc2)oc2c(F)cccc12 | inconclusive [activator, partial curve] | – |
| O=C(CC1N=C2c3ccccc3N=C(SCc3ccccc3Cl)N2C1=O)NCCc1ccccc1 (stereo not given) | inconclusive [activator, partial curve, poor fit] | – |
| O=[N+]([O-])c1ccccc1/C=C/C=N/Nc1ccc(S(=O)(=O)Nc2ccc(Cl)cc2)cc1[N+](=O)[O-] | – | inactive: -2.08% [at 9.22 µM] |
| COc1cccc(C(=O)NCc2ccc3c(c2)OCO3)c1OC | inconclusive [activator, partial curve] | – |
| COc1ccc(C(=O)Nc2cccc(-c3nnc(-c4ccco4)o3)c2)cc1 | active: 15.8 µM | – |
| COc1ccc(C)cc1NC(=O)C1CCCN(c2ncnc3onc(C)c23)C1 (stereo not given) | inconclusive [activator, partial curve] | – |
| COc1cccc(OCCCCSc2ncccn2)c1 | inconclusive [activator, full curve, poor fit] | – |
| O=C(Nc1ccc2c3c(cccc13)CC2)c1ccccc1 | inconclusive [activator, partial curve, poor fit] | – |
| C[C@@H]1CN([C@@H](C)CO)S(=O)(=O)c2ccc(Br)cc2O[C@@H]1CN(C)C(=O)c1ccccn1 | inconclusive [activator, full curve, poor fit] | – |
| O=C(/C=C/c1ccco1)Nc1ccc2c(c1)OCO2 | inconclusive [activator, partial curve] | – |
| COc1ccc(-c2c(Sc3ccccc3)c3cc(-c4ccc(OC)c(F)c4)ccc3n2C)cc1 | inconclusive [activator, full curve] | – |
| COc1ccccc1N1CCN(C(=O)CCCN2C(=O)c3cccc4cccc(c34)C2=O)CC1 | inconclusive [activator, single point] | – |

| Compound | Potency | growth rescue (activation) |
| --- | --- | --- |
| CSc1nc(-c2ccccc2)cn1-c1ccc(NC(C)=O)cc1 | inconclusive [activator, single point] | – |
| O=C1/C(=C\c2cccnc2)CCc2ccccc21 | inconclusive [activator, single point] | – |
| COc1ccc(CNC(=S)Nc2cc(C)cc(C)c2)cc1 | inconclusive [activator, partial curve, poor fit] | – |
| Cc1ccccc1NC(=O)Cc1nc(COC(=O)Cc2c(F)cccc2Cl)cs1 | inconclusive [activator, partial curve] | – |
| O=C(CC[C@H]1O[C@@H](n2ccc(=O)[nH]c2=O)[C@H](O)[C@@H]1O)NC1CCN(Cc2ccccc2)C1 (stereo not given in full) | inconclusive [activator, full curve, poor fit] | – |
| CC(C)Cn1c(N)c(C(=O)COC(=O)c2cc(C(F)(F)F)nc3ccccc23)c(=O)n(C)c1=O | inconclusive [activator, full curve] | – |
| CCCOc1ccc(/C=C/C(=O)NCc2ccccc2)cc1 | inconclusive [activator, partial curve] | – |
| COc1ccc(C(=O)Nc2ccc(N(C)Cc3ccccc3)c(C(=O)O)c2)cc1 | – | inactive: 23.7% |
| COc1ccc(/C=N/N(c2ccccc2)c2ccccc2)cc1O | inconclusive [activator, single point] | – |
| COc1ccc(-c2cc(C)no2)cc1S(=O)(=O)N(C)c1ccc(C)cc1 | inconclusive [activator, partial curve] | – |
| Clc1cccc(-c2nc3ccc(Br)cn3c2Cc2ccccc2)c1 | inconclusive [activator, full curve] | – |
| Cc1ccccc1CSc1cn(CC(=O)N2CCCCC2)c2ccccc12 | inconclusive [activator, partial curve] | – |
| Oc1c(Br)cc(/C=N/n2c(-c3ccccc3)n[nH]c2=S)c(O)c1Br | inconclusive [activator, partial curve] | – |
| Cc1cccc(N2C(=O)CN(Cc3cccs3)C2=S)c1 | inconclusive [activator, single point] | – |
| Cc1ccc(-c2ccc(CN3C(C)C(=O)N(Cc4cn(CCC5OCCCO5)nn4)CCS3(=O)=O)cc2)cc1 (stereo not given) | – | inactive: 4.45% |
| O=C(CCC(=O)c1ccc(Oc2ccccc2)cc1)Nc1ccc(C(=O)O)cc1 | inconclusive [activator, full curve, poor fit] | – |
| CCN(CC)C(=O)C1=C(C)N(Cc2ccc(OC)cc2)C(=O)C(CC(=O)NCc2cccs2)C1 (stereo not given) | inconclusive [activator, partial curve] | – |
| CCCCOC(=O)c1ccc(N)cc1 | inconclusive [activator, single point] | – |
| COc1ccc2c(c1)-c1nc(NC(=O)c3ccccc3F)sc1CC2 | inconclusive [activator, partial curve] | – |
| COC(=O)c1ccc(CO/N=C2\CCCc3nonc32)cc1 | inconclusive [activator, partial curve] | – |
